The values that follow come from PubChem BioAssay AID1963576 (National Center for Advancing Translational Sciences (NCATS), 2024).

Structures are written as SMILES. Out of some 46,000 compounds screened, about 60 (0.1%) were called active. Another 3% or so got no clear call; they are omitted. Calls come from the whole dose curve; as a rule, active = well fitted inhibition curve with a large enough effect; inconclusive = small, poorly fitted or top-dose-only effect; inactive = no such curve, though single readings can be large or run the other way. The list shows a part of the results.
Potency is the fitted concentration of half-maximal effect.

The test can be described thus: Primary qHTS assay for Inhibitors of ovarian cancer metastasis using an organotypic tumor microenvironment (TME) model.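 For Potency: count of GFP cancer cells still attached after washing and fixation.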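 For activity change, negative = inhibition: plate controls were DMSO wells for no effect and tomatine positive control wells for full effect.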 Note: nearly all actives have a fitted effect of over 65% in size. As to conditions: SKOV3ip1-GFP adhesion/invasion on 3D omental model, fluorescence; series mostly up to 45.8 µM; activity change, negative = inhibition: at the top concentration. A digest of the protocol: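 qHTS, 4-pt dose (0.36-46 umol/L); SKOV3ip1-GFP, 1,200 cells/well, no FBS; primary omental fibroblast/mesothelial co-culture 48 h pre-grown; 2 h RT + 16 h 37 C; PBS wash, 4% PFA; GFP count 488/509 nm.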
For the molecule `CCN(CC)CCNC(=O)C1CCN(c2cc(C)nc3c(-c4ccc(Cl)cc4)c(C)nn23)CC1`, the “activity change, negative = inhibition” value is inactive: -7.08%.
In the case of `Cc1ccc(NS(=O)(=O)c2cnc(N)nc2)c(C)c1`, the “activity change, negative = inhibition” value was inactive: -2.82%.
In the case of `O=C(NCCc1nc2ccccc2n1Cc1ccccc1)c1ccco1`, the “activity change, negative = inhibition” value was inactive: 7.98%.
On the same count and under the same terms, then `Cc1ccc(CN2CCCn3nc(C(=O)NCc4ccc(OC(C)C)cc4)cc3C2=O)cc1`, with inactive: 3.98%.
Regarding `CCc1nn(CC(=O)Nc2cc(C)cc(C)c2)c(=O)c2cc3sccc3n12`, the call was inactive.
Turning to `Cc1nc(-n2nc(C)c(Cc3ccc4c(c3)OCO4)c2C)sc1C(=O)Nc1cccc(Cl)c1`, the “activity change, negative = inhibition” value is inactive: -1.5%.
Turning to `CCN(CC)CCNC(=O)c1cc(-c2ccc(Br)s2)nc2ccccc12`, the Potency was active: 10 µM.
On to `CCOC(=O)c1cccc(NC(=O)c2ccc3nc(C(C)C)oc3c2)c1`, for which the “activity change, negative = inhibition” value was inactive: -6.66%.
With `CSc1ccc(CCNC(=O)CCc2c(C)nc3c(c(C)nn3-c3ccc(C)c(C)c3)c2C)cc1`, the outcome was inactive.
On to `COc1cc(-c2noc(CN3CCN(c4cccc(Cl)c4)CC3)n2)cc(OC)c1OC`, for which the “activity change, negative = inhibition” value is inactive: -10.1%.
The same measure, in the same setting: under `CSc1cccc(NC(=O)CC(c2cccs2)N2Cc3ccccc3C2=O)c1` (stereo not drawn) stands inactive: -14.7%; under `CCOc1ccccc1NC(=O)N1CCN(C)c2ncccc21`, inactive: 4.62%.
For the molecule `CCCN(CCC)CCNC(=O)c1cc2c(-c3ccc(Cl)cc3)nn(C)c2s1`, the call was inactive.
`COc1ccc(Cn2c(=O)n(-c3ccccc3C)c(=O)c3c4c(sc32)CN(C(C)=O)CC4)cc1`: the “activity change, negative = inhibition” value is inactive: 15%.
As to `Cc1ccc(CN2C(=O)CN(C3CCC(C)CC3)C(=O)C2c2ccc(F)cc2)cc1` (stereo not drawn), the call was inactive.
Turning to `CCC(C(=O)Nc1nnc2n1CCS2)c1ccccc1` (stereo not drawn), the “activity change, negative = inhibition” value is inactive: -0.956%.
Consider `O=C(Nc1cccc(Cl)c1Cl)c1cc2nc(-c3ccc(Cl)cc3)cc(C(F)(F)F)n2n1`, for which the “activity change, negative = inhibition” value was inactive: 6.76%.
Still for that read-out and setting: under `CCOc1ccc(N(CC(=O)Nc2cc(C)ccc2C)S(=O)(=O)c2c(C)[nH]c(=O)[nH]c2=O)cc1` stands inactive: -3.34%; under `Cc1ccc(NC(=O)CCn2nc(C)c(S(=O)(=O)N3CCCCC3)c2C)cc1Cl`, inactive: -20.9%.
With `CCOC(=O)c1c(C)sc(-c2c(-c3cc(C)ccc3C)[nH]c3c2c(=O)n(C)c(=O)n3C)c1O`, the “activity change, negative = inhibition” value is inactive: 2.31%.
For the molecule `CC(C)CC(=O)Nc1ccc2nc(SCC(=O)N3CCCC3)sc2c1`, the result was inactive.
Still for that read-out and setting: under `COc1ccc(NC(=O)N2CCc3c(sc4c3CCCC4)C2c2ccccc2OC)cc1` (stereo not drawn) stands “inactive”.
With `Cc1ccc(OCC(=O)NCC(c2ccc(Cl)cc2)N2CCCCC2)cc1` (stereo not drawn), the “activity change, negative = inhibition” value is inactive: 3.19%.
`Cc1ccc(C)c(CN2C(=O)c3ccccc3S(=O)(=O)c3ccc(C(=O)N4CCc5ccccc54)cc32)c1`: the “activity change, negative = inhibition” value was inactive: -11.6%.
For `CCCNC(=O)CSc1nc2ccccc2nc1Cc1ccc(Cl)cc1`, the “activity change, negative = inhibition” value was inactive: 3.82%.
On to `CCN(c1ccc(C)cc1)S(=O)(=O)c1nnc(NC(=O)C2CCCCC2)s1`, for which the “activity change, negative = inhibition” value is inactive: -2.39%.
Regarding `COc1ccc(CNS(=O)(=O)c2cc3c(cc2C)N(C)CCO3)cc1`, the “activity change, negative = inhibition” value is inactive: -21.6%.
On the same count and under the same terms, then `Cc1ccc(Cn2cc(C(=O)c3ccc(F)cc3)c(=O)c3cc4c(cc32)OCO4)cc1`, with inactive: -19.2%.
Regarding `Cc1cccc(NC(=O)c2cc(S(=O)(=O)NCc3ccc4c(c3)OCO4)ccc2F)c1C`, the call was inactive.
With `CCOC(=O)Cn1c(=O)n(CC2CCCO2)c2nc(-c3ccccc3F)nc(C(N)=O)c21` (stereo not drawn), the result was inactive.
For `Cc1ccc(CCNC(=O)c2cn(C)c3ccc(S(=O)(=O)N(C)C4CCCCC4)cc3c2=O)cc1`, the outcome was inactive.
As for `CCC1=Nc2cc(C(=O)NCC(C)c3ccccc3)ccc2Sc2ccc(C)cc21` (stereo not drawn), the “activity change, negative = inhibition” value is inactive: 26.7%.
The same measure, in the same setting: under `COC(=O)c1ccc(NC(=O)CCc2c(C)nc3c(-c4ccccc4)c(C)nn3c2C)cc1` stands inactive: -2.11%.
For `CCn1c(CNC(=O)c2ccc(OC)cc2)nnc1SCC(=O)Nc1ccccc1`, the call was inactive.
As to `CCOC(=O)c1ccc(OCC2c3cc(OC)c(OC)cc3CCN2C(=O)c2ccc(S(=O)(=O)N3CCCC3)cc2)cc1` (stereo not drawn), the “activity change, negative = inhibition” value is inactive: -1.08%.
On to `COc1ccc(-n2c(C)c(C(C)=O)c3cc(OC(=O)c4ccc(C)cc4)ccc32)cc1`, for which the “activity change, negative = inhibition” value was inactive: -22.9%.
Turning to `CCN1CCN(c2ncnc3c2cnn3-c2ccc(C)c(Cl)c2)CC1`, the call was inactive.
Still for that read-out and setting: under `CC(Oc1ccc(F)cc1)C(=O)Nc1nc(-c2ccc(F)cc2)ns1` (stereo not drawn) stands “inactive”.
As to `COc1ccc(C)cc1S(=O)(=O)NCC(c1cccs1)S(=O)(=O)c1ccc(C)cc1` (stereo not drawn), the “activity change, negative = inhibition” value is inactive: -2.55%.
Still for that read-out and setting: under `COc1ccc(-c2noc(-c3ccc(N4CCCC4)c([N+](=O)[O-])c3)n2)cc1` stands inactive: 8.2%.
Turning to `COc1ccc(-c2nc3scc(CCNS(=O)(=O)c4ccccc4F)n3n2)cc1`, the result was inactive.
In the case of `CCn1nnc2cc(C(=O)Nc3cccc(Cl)c3C)ccc21`, the “activity change, negative = inhibition” value is inactive: -2.51%.
For the molecule `COc1ccc(Cn2c(CNS(=O)(=O)c3ccc(C)c(C)c3)nc3cccnc32)cc1`, the outcome was inactive.
With `CCOC(=O)Cc1ccc(NC(=O)Nc2ccccc2OCc2cc(=O)n3ccccc3n2)cc1`, the “activity change, negative = inhibition” value is inactive: -25%.
As for `O=C(NCc1ccc2c(c1)CCN2C(=O)c1ccccc1)Nc1cc(F)ccc1F`, the “activity change, negative = inhibition” value is inactive: -9.83%.
As for `COc1ccccc1-n1c(=O)c2c3c(sc2n(C)c1=O)CN(C(C)=O)CC3`, the result was inactive.
For `CCN(CC)C(=O)c1sc2c(c1C)c(=O)n(Cc1ccccc1)c(=O)n2Cc1ccc(Cl)cc1`, the “activity change, negative = inhibition” value was inactive: 11.8%.
On the same count and under the same terms, then `CCc1cccc(-n2nnc(-c3nc(-c4ccccc4Cl)no3)c2N)c1`, with inactive: -8.33%.
